Test results published in PubChem BioAssay (NCI).
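Protocol summary: plate cells (96-well), add compound at 5 concentrations, incubate 48 h, interpolate endpoints linearly. GI50 = concentration required for 50% inhibition of growth.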 Not every entry of the source has a single result; some have several. Only these are listed. The source may hold further records. Records of one sample usually come from different ranges of test concentrations, which the source does not state; a value can be the end of its range.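 TGI is the concentration that stops growth completely.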

Experiments:
Assay in all cases: NCI anticancer screen, dose series, 48 h
ACHN renal = system: ACHN renal
CCRF-CEM leukemia = system: CCRF-CEM leukemia
HCC-2998 colon = system: HCC-2998 colon
HCT-116 colon = system: HCT-116 colon
HOP-62 NSCLC = system: HOP-62 NSCLC
HOP-92 NSCLC = system: HOP-92 NSCLC
HS 578T breast = system: HS 578T breast
HT29 colon = system: HT29 colon
IGROV1 ovarian = system: IGROV1 ovarian
K-562 leukemia = system: K-562 leukemia
KM12 colon = system: KM12 colon
LOX IMVI melanoma = system: LOX IMVI melanoma
M14 melanoma = system: M14 melanoma
MALME-3M melanoma = system: MALME-3M melanoma
MCF7 breast = system: MCF7 breast
MDA-MB-435 = system: MDA-MB-435
MDA-N = system: MDA-N
MOLT-4 leukemia = system: MOLT-4 leukemia
NCI-H23 lung = system: NCI-H23 lung
NCI-H460 lung = system: NCI-H460 lung
NCI-H522 lung = system: NCI-H522 lung
OVCAR-3 ovarian = system: OVCAR-3 ovarian
OVCAR-4 ovarian = system: OVCAR-4 ovarian
OVCAR-5 ovarian = system: OVCAR-5 ovarian
OVCAR-8 ovarian = system: OVCAR-8 ovarian
SF-268 CNS = system: SF-268 CNS
SF-295 CNS = system: SF-295 CNS
SF-539 CNS = system: SF-539 CNS
SK-MEL-2 melanoma = system: SK-MEL-2 melanoma
SK-MEL-28 melanoma = system: SK-MEL-28 melanoma
SK-MEL-5 melanoma = system: SK-MEL-5 melanoma
SNB-75 CNS = system: SNB-75 CNS
SR leukemia = system: SR leukemia
T-47D breast = system: T-47D breast
TK-10 renal = system: TK-10 renal
UACC-62 melanoma = system: UACC-62 melanoma

Q: With `Cc1c(CNc2ccc(C(=O)NC(CCCNC(=O)c3ccccc3C(=O)O)C(=O)O)cc2)cnc2nc(N)nc(N)c12` (stereo not given) as the compound, how does the TGI (ACHN renal) read?
A: The TGI was 3.83 µM and > 100 µM.

Q: What about the TGI (CCRF-CEM leukemia) of the same compound?
A: Its TGI is 7.8 µM and > 100 µM.

Q: What about the TGI (HCC-2998 colon) of the same compound?
A: Its TGI is 2.2 µM and 72.8 nM.

Q: And the TGI (HCT-116 colon)?
A: The TGI was 169 nM and > 100 µM.

Q: And the TGI (HOP-62 NSCLC)?
A: Its TGI is 8.7 µM and > 100 µM.

Q: What about the TGI (HOP-92 NSCLC) of the same compound?
A: Its TGI is 5.21 µM and > 100 µM.

Q: And the GI50 (HS 578T breast)?
A: Its GI50 is 791 nM and > 100 µM.

Q: And the TGI (HS 578T breast)?
A: The TGI was 769 nM, 4.11 µM, > 100 µM.

Q: And the TGI (HT29 colon)?
A: The TGI was 2.9 µM and > 100 µM.

Q: What about the TGI (IGROV1 ovarian) of the same compound?
A: The TGI was 3.48 µM and > 100 µM.

Q: What about the TGI (K-562 leukemia) of the same compound?
A: The TGI was 271 nM and > 100 µM.

Q: And the TGI (KM12 colon)?
A: The TGI was 7.56 µM and > 100 µM.

Q: And the TGI (LOX IMVI melanoma)?
A: Its TGI is 7.03 µM and > 100 µM.

Q: And the TGI (M14 melanoma)?
A: Its TGI is 3.4 µM and > 100 µM.

Q: What about the GI50 (MALME-3M melanoma) of the same compound?
A: The GI50 was 2.09 nM and 407 nM.

Q: What about the TGI (MALME-3M melanoma) of the same compound?
A: Its TGI is 2.73 µM and > 100 µM.

Q: What about the TGI (MCF7 breast) of the same compound?
A: The TGI was 8.58 µM and > 100 µM.

Q: What about the TGI (MDA-MB-435) of the same compound?
A: The TGI was 2.72 µM and > 100 µM.

Q: And the TGI (MDA-N)?
A: The TGI was 2.01 µM and > 100 µM.

Q: And the TGI (MOLT-4 leukemia)?
A: Its TGI is 3.06 µM and > 100 µM.

Q: What about the TGI (NCI-H23 lung) of the same compound?
A: The TGI was 1.05 µM and > 100 µM.

Q: And the TGI (NCI-H460 lung)?
A: Its TGI is 558 nM and > 100 µM.

Q: And the TGI (NCI-H522 lung)?
A: The TGI was 344 nM, 448 nM, > 100 µM.

Q: And the GI50 (OVCAR-3 ovarian)?
A: The GI50 was 1.43 µM and > 100 µM.

Q: What about the TGI (OVCAR-4 ovarian) of the same compound?
A: The TGI was 8.04 µM and > 100 µM.

Q: And the GI50 (OVCAR-5 ovarian)?
A: The GI50 was 320 nM and > 100 µM.

Q: And the TGI (OVCAR-8 ovarian)?
A: Its TGI is 1.01 µM and > 100 µM.

Q: What about the TGI (SF-268 CNS) of the same compound?
A: The TGI was 2.58 nM, 3.38 µM, > 100 µM.

Q: What about the TGI (SF-295 CNS) of the same compound?
A: Its TGI is 3.55 µM and > 100 µM.

Q: And the TGI (SF-539 CNS)?
A: Its TGI is 1.85 µM and > 100 µM.

Q: And the TGI (SK-MEL-2 melanoma)?
A: The TGI was 3.38 µM and > 100 µM.

Q: And the GI50 (SK-MEL-28 melanoma)?
A: The GI50 was 8.76 nM and 30.8 µM.

Q: What about the TGI (SK-MEL-28 melanoma) of the same compound?
A: Its TGI is 3.79 µM and > 100 µM.

Q: And the TGI (SK-MEL-5 melanoma)?
A: The TGI was 2.66 µM and > 100 µM.

Q: What about the GI50 (SNB-75 CNS) of the same compound?
A: Its GI50 is 12.1 nM and 40.4 µM.

Q: What about the TGI (SNB-75 CNS) of the same compound?
A: Its TGI is 47.1 nM, 1.55 µM, > 100 µM.

Q: And the TGI (SR leukemia)?
A: Its TGI is 1.06 µM and > 100 µM.

Q: What about the TGI (T-47D breast) of the same compound?
A: The TGI was 5.33 µM and > 100 µM.

Q: What about the TGI (TK-10 renal) of the same compound?
A: Its TGI is 6.83 µM and > 100 µM.

Q: And the TGI (UACC-62 melanoma)?
A: Its TGI is 380 nM, 1.73 µM, > 100 µM.
